Data reported in PubChem BioAssay AID463173 (ICCB-Longwood Screening Facility, Harvard Medical School, 2010).
About 4,300 (8.3%) of roughly 52,000 compounds were called active. No stated cut-off is given here; in the data, active means survival mostly below about 52% (no sharp cut-off); inactive means mostly above about 56%. Some of the results follow.

Each molecule was assayed on DeltatarO mutant (assay: growth inhibition of S. aureus wild type versus tarO mutant, primary screen, teichoic acid synthesis inhibitors, RN4220, OD600 (AID 463173)). Conditions: OD600, 18 h, active compounds read low, screened at 18.75 µg/mL (by protocol).
For `CCN(CC)CCNC(=O)C1CCN(c2nn3cc(-c4ccc(F)cc4)nc3s2)CC1`, the survival was inactive: 79%.
In the case of `CN(C(=O)Nc1ccccc1)C1CCS(=O)(=O)C1` (centres undefined), the survival is reported as inactive: 94%.
In the case of `O=c1cc(-c2ccccc2)nc(SCc2nc(-c3ccccc3Cl)no2)[nH]1`, the survival is reported as inactive: 69%.
With `CCOc1cc(C(=O)Nc2cc3c(cc2N2CCOCC2)n(C)c(=O)n3C)cc(OCC)c1OCC` the survival was inactive: 90%.
For `COc1ccc(CNC(=O)CCCN2C(=O)CSc3c2c(C)nn3-c2ccccc2)cc1`, the survival was inactive: 80%.
`COC(=O)c1cc2sc(C)cc2n1Cc1cccc(OC)c1` was tested, and the survival was active: 1%.
For `Cc1ccc(N2CC(NC(=O)c3cccs3)CC2=O)cc1C` (centres undefined), the survival was inactive: 91%.
`Cc1cccc(NC(=O)c2ccc(-n3cnc4cccnc43)cc2)c1C` was tested, and the survival was inactive: 82%.
`COc1cc(NC(=O)c2cccc3c2C(=O)N(C2CCCCC2)C3)cc(OC)c1OC` was tested, and the survival was inactive: 53%.
`COc1cccc(N=Nc2c(O)[nH]c(=O)[nH]c2=O)c1` was tested, and the survival was inactive: 101%.
For `Cn1c(C(=O)N2CCc3ccccc32)cc2sccc21`, the survival was inactive: 91%.
For `Oc1ccccc1-c1nc(/C=C/c2ccccc2Cl)nn1-c1ccccc1`, the survival was active: 14%.
For `CC1CCN(c2nc(N3CCCCC3)nc(N3CCCCC3)n2)CC1`, the survival was inactive: 62%.
`Cc1ccccc1CNC(=O)CCCn1c(=O)c2cccn2c2cccnc21` was tested, and the survival was inactive: 114%.
For `CNc1ncnc2c1cnn2-c1ccc(C)c(C)c1`, the survival was inactive: 85%.
With `CCOc1ccc(NC(=O)C2CCC(CNS(=O)(=O)c3ccc(Br)s3)CC2)cc1` (centres undefined) the survival was inactive: 87%.
In the case of `COc1ccc(OC)c(CNC(=O)C(C)n2c(C)c3cnn(-c4ccccc4)c(=O)c3c2C)c1` (centres undefined), the survival is reported as inactive: 112%.
`CC1=C(c2ccc(C)c(C)c2)S(=O)(=O)N=C1N1CCC(C(=O)N2CCC(C)CC2)CC1` was tested, and the survival was inactive: 72%.
With `CCOc1cc(/C=C(\C#N)C(=O)NCC2CCCO2)ccc1O` (centres undefined) the survival was inactive: 71%.
With `Cc1ccccc1OCc1ccc(-c2nc(C#N)c(NCc3cccnc3)o2)o1` the survival was active: 43%.
For `COc1ccc(-c2noc(=O)n2Cc2ccccc2)cc1`, the survival was inactive: 75%.
In the case of `CCc1ccc(C(=O)c2cn(CC(=O)Nc3ccc4c(c3)OCO4)c3ccc(OC)cc3c2=O)cc1`, the survival is reported as inactive: 67%.
With `Cn1c(C(=O)Nc2cccc(C(F)(F)F)c2)cc2c(=O)n3ccccc3nc21` the survival was inactive: 98%.
For `CCOC(=O)Cc1ccc(NC(=O)NCc2cccn2Cc2ccccc2)cc1`, the survival was active: -4%.
For `Cc1ccc(NC(=O)CSc2nc(-c3cccs3)nc3cc(=O)[nH]n23)cc1`, the survival was inactive: 79%.
For `COc1ccc(-n2c(=O)c3sc4ccccc4c3n(CC(=O)Nc3ccccc3F)c2=O)cc1`, the survival was inactive: 94%.
In the case of `CC(C)c1ccc(OC(=O)c2cc(-c3ccc(Cl)cc3)on2)cc1`, the survival is reported as inactive: 98%.
For `COc1ccc(CC(=O)NCC(c2ccc(N(C)C)cc2)N2CCOCC2)cc1` (centres undefined), the survival was inactive: 102%.
With `Cc1ccc(-n2ncc3c(NCCCn4ccnc4)ncnc32)cc1Cl` the survival was inactive: 72%.
With `Nc1nnnn1/N=C/c1cccc(Br)c1` the survival was inactive: 78%.
`CCN(CC)C(=O)Cn1c(=O)nc(-c2ccccc2F)c2cc(Cl)ccc21` was tested, and the survival was inactive: 77%.
With `COC(=O)c1cnc(NCc2ccc(F)cc2)c2ccccc12` the survival was inactive: 102%.
In the case of `COc1ccc(N2C(=O)C(CC(=O)Nc3ccc(F)cc3)N(Cc3ccc4c(c3)OCO4)C2=O)cc1` (centres undefined), the survival is reported as inactive: 76%.
In the case of `Cc1cc(F)ccc1S(=O)(=O)Nc1ccc2c(c1)CCCN2C(=O)c1cccs1`, the survival is reported as inactive: 86%.
In the case of `CCCNC(=O)N1[C@H](c2ccc(C)s2)[C@@H](C)C(=O)[C@@H](C)[C@@H]1c1ccc(C)s1`, the survival is reported as inactive: 44%.
For `COC(=O)c1cc2c(ccn2-c2ccc(F)cc2)n1CC(=O)N1CC(C)CC(C)C1` (centres undefined), the survival was inactive: 101%.
With `Cc1ccc(Cl)cc1N1CCN(C(=O)c2cc(S(=O)(=O)N3CCCC3)cn2C)CC1` the survival was inactive: 72%.
With `Cc1ccc(Nc2nnc(-c3ccc(C)c(S(=O)(=O)N4CCOCC4)c3)c3ccccc23)c(C)c1` the survival was inactive: 115%.
With `CCOc1ccc(C(=O)c2cn(Cc3ccc(Cl)cc3)c3cc(OC)c(OC)cc3c2=O)cc1` the survival was inactive: 84%.
`CCC(Cc1ccccc1)NC(=O)Cn1ncc2c3ccccc3n(Cc3ccccc3)c2c1=O` (centres undefined) was tested, and the survival was inactive: 69%.
With `CCc1nc2nc(C)cc(Nc3ccc(OC)cc3OC)n2n1` the survival was inactive: 70%.
With `Cc1oc(-c2ccc(Cl)cc2)nc1CN1CCC(C(=O)NCCCN2CCN(c3cccc(Cl)c3)CC2)CC1` the survival was active: 42%.
For `CCOC(=O)COc1ccc(C)cc1C(=O)c1ccn2nc(-c3ccc(C)cc3)cc2n1`, the survival was inactive: 77%.
With `COC(=O)c1ccc(OCC2c3cc(OC)c(OC)cc3CCN2C(=O)C(C)C)cc1` (centres undefined) the survival was inactive: 112%.
With `COCCNC(=O)c1ccc(CSc2nc3ccncc3n2Cc2ccccc2)cc1` the survival was inactive: 91%.
With `O=C(CSc1ncc2c(n1)-c1ccccc1N(Cc1ccccc1)S2(=O)=O)Nc1ccccc1` the survival was active: -5%.
For `COc1ccc(C)cc1NC(=O)NCc1ccc2c(c1)CCN2C(=O)c1ccccc1`, the survival was inactive: 105%.
With `Cc1ccc(NC(=O)Cn2c(=O)n(-c3ccccc3)c(=O)c3c4c(sc32)CCCC4)cc1` the survival was inactive: 67%.
With `C=Cc1ccc(CN2C(=O)N(c3ccc(CC)cc3)S(=O)(=O)c3ccccc32)cc1` the survival was active: 6%.
In the case of `COc1ccc(C)cc1NC(=O)CSc1nc(=O)n(Cc2ccncc2)c2c1CCC2`, the survival is reported as inactive: 123%.
With `COc1ccc(C)cc1Nc1nc2cc(Cl)c(Cl)cc2nc1-n1nc(C)cc1C` the survival was inactive: 84%.
`Cc1ccc(C)c(CN2C(=O)c3ccccc3S(=O)(=O)c3ccc(C(=O)N4CCN(c5ccccn5)CC4)cc32)c1` was tested, and the survival was inactive: 63%.
With `CCc1cccc(N2C(=O)N(CC(=O)NCc3cccc(OC)c3OC)c3ccccc3S2(=O)=O)c1` the survival was inactive: 84%.
With `O=C(Cc1ccc(Cl)cc1)n1cc(Cl)cn1` the survival was inactive: 103%.
In the case of `COc1cc(NC(=O)CN2C(=O)COc3ccc(S(=O)(=O)N4CCCCC4)cc32)cc(OC)c1`, the survival is reported as inactive: 85%.
`CCOc1ccc(C(=O)NCC(c2ccc3c(c2)OCO3)N2CCN(c3ccccc3F)CC2)cc1` (centres undefined) was tested, and the survival was inactive: 79%.
For `COCCCNC(=O)C1CCN(Cc2nc(-c3ccc(OC)c(OC)c3)oc2C)CC1`, the survival was inactive: 88%.
In the case of `Cc1ccc(NC(=O)Cn2c(=O)n(Cc3ccco3)c(=O)c3ccc(C(=O)NC4CCCC4)cc32)c(C)c1`, the survival is reported as inactive: 101%.
`COc1ccc(Cn2nnc(C(=O)Nc3cc(OC)ccc3OC)c2N)cc1` was tested, and the survival was inactive: 60%.
With `COc1ccc(OC)c(CCNC(=O)c2c(C)nn(-c3ccc(F)cc3)c2-n2cccc2)c1` the survival was inactive: 83%.
`CCn1c(=O)cc(SCC(=O)NCCc2cc(OC)ccc2OC)c2ccccc21` was tested, and the survival was inactive: 61%.
With `Cc1nnc(N2CCC(C(=O)NC3CCCCC3)CC2)c2nn(-c3ccc(Cl)cc3)c(C)c12` the survival was inactive: 71%.
With `CCOc1ccc(NC(=O)c2c(NCc3ccc(C)o3)sc3c2CCC(C)C3)cc1` (centres undefined) the survival was inactive: 97%.
In the case of `CCC(=O)N1CCc2cc(S(=O)(=O)CCC(=O)N3CCN(c4cc(C)ccc4C)CC3)ccc21`, the survival is reported as inactive: 81%.
With `COc1cccc(NC(=O)CSc2nc3ccccc3n2C)c1` the survival was active: 37%.
With `Cc1ccc(Cn2nnc3c(=O)[nH]c(C4CCN(S(=O)(=O)c5ccc(S(=O)(=O)NC6CC6)cc5)CC4)nc32)cc1` the survival was inactive: 95%.
With `COc1ccc(OC)c(NC(=O)CN(C)S(=O)(=O)c2ccc3[nH]c4c(c3c2)CCCC4)c1` the survival was inactive: 73%.
In the case of `COc1ccccc1CNCCSc1nnnn1C`, the survival is reported as inactive: 57%.
`CCC(c1nnnn1Cc1ccco1)N(Cc1cccs1)Cc1cc2c(C)cc(C)cc2n2nnnc12` (centres undefined) was tested, and the survival was inactive: 85%.
In the case of `Nc1c(-c2nc(-c3ccncc3)no2)nnn1CC(=O)Nc1ccccc1`, the survival is reported as inactive: 85%.
In the case of `COc1ccc(C(=O)N(Cc2ccco2)Cc2ccco2)cc1`, the survival is reported as inactive: 58%.
For `COC(=O)c1c(N)n(-c2cc(Cl)cc(Cl)c2)c2nc3ccccc3nc12`, the survival was active: 44%.
`CN1CCC(OC(=O)COc2ccc(F)cc2)CC1` was tested, and the survival was inactive: 79%.
For `Cc1noc(/C=C/c2ccccc2F)c1S(=O)(=O)N1CCC(C(=O)N(C)Cc2ccco2)CC1`, the survival was inactive: 94%.
In the case of `COc1ccc(NC(=O)Cn2c(=O)n(CCc3ccccc3)c(=O)c3ccccc32)cc1`, the survival is reported as inactive: 83%.
For `COc1ccc2nc(NC(=O)c3cc(=O)c4ccccc4o3)sc2c1`, the survival was inactive: 50%.
In the case of `COc1cccc(CNS(=O)(=O)c2cc3c(cc2C)n(C)c(=O)c(=O)n3C)c1`, the survival is reported as inactive: 113%.
For `O=C(c1cccc(Cl)c1)N1CCN(CCc2ccccn2)CC1`, the survival was inactive: 57%.
In the case of `CCCCNC(=O)c1c(C)oc2ncn(CC(C)C)c(=O)c12`, the survival is reported as active: 6%.
For `CCOc1ccc(NC(=O)Cn2nc(-c3ccncc3)ccc2=O)cc1`, the survival was inactive: 89%.
With `Cc1ccccc1OCC(=O)Nc1cc(-c2cccc(Br)c2)nn1-c1ccccc1` the survival was inactive: 79%.
In the case of `O=C(NCc1nc2cccnc2n1Cc1ccc(F)cc1)c1ccccc1C(F)(F)F`, the survival is reported as inactive: 77%.
In the case of `CCc1ccc(NCc2cccn2-c2nnc(N3CCCCCC3)s2)cc1`, the survival is reported as active: -6%.
In the case of `CCOc1ccc(NC(=O)CSc2nnc(CNC(=O)c3c(F)cccc3Cl)o2)cc1`, the survival is reported as inactive: 96%.
For `COc1ccc(OC)c(-c2cc(C(=O)Nc3cnn(Cc4ccc(Cl)cc4Cl)c3)no2)c1`, the survival was inactive: 64%.
For `COc1ccc(S(=O)(=O)NCC(c2ccco2)N2CCOCC2)cc1C` (centres undefined), the survival was inactive: 80%.
In the case of `COc1ccccc1N1CCN(S(=O)(=O)c2c(C)sc3ncn(CC(=O)Nc4ccccc4F)c(=O)c23)CC1`, the survival is reported as inactive: 70%.
With `CCOc1ccc(/C=C/c2nc3ccccc3n2S(=O)(=O)c2ccc(Br)cc2)cc1` the survival was inactive: 59%.
In the case of `COc1cccc(NC(=O)Cn2c(=O)n(-c3ccc(Cl)cc3)c(=O)c3sc4ccccc4c32)c1`, the survival is reported as inactive: 88%.
